# In the supplement of paper PMC3334620:
# The full ranking holds about 33,000 sequences; the median of “E-score (-0.5 to 0.5)” is about -0.035, and the highest 2% start at about 0.35. The list shows a part of the results.
# Biological target: T1, Pdr3 (UniProt P33200)
# T1 sequence: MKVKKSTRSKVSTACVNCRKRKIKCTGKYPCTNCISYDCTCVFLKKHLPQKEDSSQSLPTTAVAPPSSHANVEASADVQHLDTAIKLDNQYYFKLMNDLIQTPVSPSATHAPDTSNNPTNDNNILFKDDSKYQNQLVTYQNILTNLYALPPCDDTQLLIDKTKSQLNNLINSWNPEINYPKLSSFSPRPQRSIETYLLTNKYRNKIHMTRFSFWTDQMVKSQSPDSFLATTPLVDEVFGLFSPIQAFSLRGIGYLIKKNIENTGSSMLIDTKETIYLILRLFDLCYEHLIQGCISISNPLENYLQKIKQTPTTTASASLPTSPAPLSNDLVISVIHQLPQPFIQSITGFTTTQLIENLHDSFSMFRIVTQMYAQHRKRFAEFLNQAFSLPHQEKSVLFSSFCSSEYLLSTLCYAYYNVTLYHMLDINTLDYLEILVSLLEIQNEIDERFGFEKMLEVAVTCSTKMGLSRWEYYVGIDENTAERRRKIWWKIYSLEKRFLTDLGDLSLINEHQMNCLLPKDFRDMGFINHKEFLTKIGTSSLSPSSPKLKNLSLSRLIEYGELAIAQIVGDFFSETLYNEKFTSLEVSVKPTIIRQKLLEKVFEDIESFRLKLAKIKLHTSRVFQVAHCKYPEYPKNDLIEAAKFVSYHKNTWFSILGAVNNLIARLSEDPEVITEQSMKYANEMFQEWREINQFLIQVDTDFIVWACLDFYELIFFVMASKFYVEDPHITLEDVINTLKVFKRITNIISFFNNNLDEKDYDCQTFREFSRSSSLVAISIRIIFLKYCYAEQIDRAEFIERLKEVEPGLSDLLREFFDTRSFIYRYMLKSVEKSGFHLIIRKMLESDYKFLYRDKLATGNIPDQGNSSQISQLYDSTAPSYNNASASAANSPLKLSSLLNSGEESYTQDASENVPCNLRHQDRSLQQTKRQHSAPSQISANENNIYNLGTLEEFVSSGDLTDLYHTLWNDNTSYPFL
# Assay: PBM E-score (8-mer binding enrichment) (E-score (-0.5 to 0.5)); higher = stronger / more preferred TF binding; most listed sequences are background and not binding sites
# Conditions: protein concentration: 200 nM; construct: GST-full length
# Protocol: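 Universal 'all 10-mer' protein binding microarrays (Agilent AMADID 015681) probed with GST-tagged S. cerevisiae TFs (full-length or DBD) made by in vitro transcription/translation (PURExpress), about 100-200 nM. Bound TF was detected with fluorescent anti-GST. Each ungapped 8-mer (which stands for itself and its reverse complement) is scored by the PBM enrichment score (E-score), a modified Wilcoxon-Mann-Whitney statistic from -0.5 to +0.5, computed with the Universal PBM Analysis Suite. Scale: above 0.35 generally sequence-specific binding.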
row,Sequence,PBM E-score
1,CCTATCCA,-0.222
2,CCGGAGCC,0.403
3,GCCTGGCC,0.00694
4,ATACGATA,-0.131
5,ACCTTGAA,-0.275
6,GACTATGC,-0.139
7,AAGCCTTG,-0.115
8,ACGTAAGT,-0.172
9,AGGGGCTC,-0.195
10,TACCCTCA,-0.0883
11,GCCCAGTA,0.0632
12,AAGGTACC,-0.0179
13,GTTACAAA,-0.0148
14,CCAGCGCA,0.0268
15,ACTTGTAC,-0.139
16,CCTCTTCC,0.102
17,GACGAACC,-0.0138
18,ATGGTAGC,0.0383
19,AGGAGGCG,-0.0989
20,GAGGCACA,-0.0527
21,TAAGCGTA,-0.311
22,CGCGGTTC,0.307
23,TGACCCCA,-0.0487
24,GGCTAGCC,-0.193
25,AGTTAACG,-0.056

row,Sequence,PBM E-score
1,ACGGGCTG,0.0396
2,TCGGTAGA,-0.027
3,CAGTCTAA,-0.139
4,GTCGTTTA,-0.0669
5,ACCCCAGT,0.0467
6,AGATGATG,-0.0403
7,CAGGAAGG,-0.317
8,CTTCCATA,-0.218
9,CAGGTAGA,-0.165
10,GGCCGTTA,0.225
11,GGGGGGCA,-0.411
12,ACCGGCAC,0.192
13,ACAGTGAG,-0.277
14,CTTAGACC,-0.233
15,AATTACCT,-0.219
16,CTTAGCTC,-0.0322
17,GGGCATTA,-0.0343
18,CCTTCCAC,-0.127
19,GCTCACTA,-0.189
20,AAAATCTT,-0.207
21,AGAGGGAG,-0.301
22,AAAGCAGG,-0.087
23,GCATCCCA,0.00473
24,GGTTGGTA,0.0611
25,CATGGGGG,-0.065

row,Sequence,PBM E-score
1,TGCCGGCA,0.385
2,CAGCGCGA,-0.149
3,CGCTACCG,0.141
4,GGTCTCTA,-0.103
5,AGCATAGC,-0.369
6,GGAGTAAC,0.0889
7,AGCGATCA,-0.103
8,AAACGGGA,0.352
9,AAAAATCG,-0.0751
10,AAGCTCCT,-0.2
11,AAGTTCCG,0.445
12,GTGCAGGA,-0.185
13,TACTGAGA,-0.116
14,ACTTCTTA,-0.0293
15,GCCCCGAA,0.229
16,CTATGATA,0.0702
17,CAGCTCTA,-0.128
18,CTAAAGTA,-0.175
19,GGTGTACA,-0.172
20,AACGCCTC,-0.18
21,CCAGTAAC,0.06
22,ATTGCCGA,0.0449
23,AGCCTGCA,-0.0808
24,CTATATAG,-0.19
25,CCAATTTA,0.107

row,Sequence,PBM E-score
1,AGAATGGA,0.0755
2,CTTCCCCA,-0.0524
3,AACGACCT,-0.0509
4,CTGTGTGA,0.016
5,CATTGCGG,0.162
6,TTCATGAA,-0.0172
7,GCGTGTGA,0.00455
8,CGCTTATC,-0.0899
9,ACCCGTAG,-0.136
10,ACAACCTC,-0.173
11,CAGGGGCG,-0.0414
12,ATCGCAAG,-0.0969
13,AAGCGGCA,0.178
14,GAAGCAAA,-0.213
15,AAGTTGCA,-0.103
16,CCGCGCGA,0.303
17,GTTATATA,0.00607
18,TGTACGAA,0.0305
19,CTCGAGAC,0.0902
20,ATCAACTC,-0.0321
21,CGGGGCGA,0.27
22,AGTACGAT,0.0388
23,CAGTAGGC,-0.169
24,AACCCAAG,-0.122
25,CACTTAAC,-0.138

row,Sequence,PBM E-score
1,GTACGTTA,0.0883
2,ACCTCCGT,0.204
3,ACAATCAG,-0.144
4,CACGGCAC,0.0786
5,GGGTCTTA,-0.0402
6,CTTGTGGC,-0.181
7,ATTATAAT,0.213
8,GGGGCCCC,0.307
9,CTTCCGAC,0.267
10,GTTTCGTA,0.08
11,ACCAACTC,-0.0488
12,ACGCCAGT,-0.0505
13,CTTATACC,-0.119
14,AGTCTAAA,-0.203
15,CCAGAAAC,0.0423
16,CCAAACAA,-0.0083
17,ACACCATG,-0.196
18,ACGAATAC,-0.0431
19,AGTTGTGA,0.00273
20,AATACGGC,0.17
21,GGAAACAA,0.246
22,TAGATTAA,-0.0269
23,CCCCTGTA,-0.122
24,AACAATCC,0.197
25,CAATCAAA,-0.0425

row,Sequence,PBM E-score
1,ACACTAAT,0.0852
2,CGGCTGTC,0.0887
3,CCCGGCTC,0.224
4,CCTTCGAA,0.0991
5,CGAGCGTC,-0.124
6,AGACTCTA,-0.268
7,CCGCCCGC,0.241
8,ATTATTGC,0.131
9,CCTTGTAA,-0.0627
10,AAGCCTCG,-0.0127
11,GATCAGAC,-0.0736
12,ACGGCAGT,-0.0505
13,CAGCTGAC,0.0213
14,CACACTCG,0.111
15,CTATCGGC,0.112
16,CGTTGTGC,-0.0287
17,AAGGCGAC,-0.109
18,GAGATATA,-0.0202
19,ATTCCTTC,0.128
20,CACGTCGC,-0.0577
21,GCAGGAGC,-0.238
22,ATCCACAA,-0.231
23,AGAATTGA,-0.245
24,GTTAGTGA,-0.121
25,ACGTGTGC,-0.292

row,Sequence,PBM E-score
1,AAAGTCGG,-0.00755
2,AATGATCC,0.142
3,AGAACAAG,0.00381
4,AAGTAGCT,-0.228
5,GTTGTATA,-0.144
6,AAGAGGCA,-0.0517
7,CCAAGCAA,-0.11
8,CACGTGCC,-0.125
9,AGTTAGAG,-0.249
10,CTGTTTCC,0.045
11,AGCGGAAC,0.457
12,GGACAATA,0.28
13,ATAGCGGA,0.259
14,CTAGCTTA,-0.0805
15,ACTCGAGG,-0.0802
16,AGAAAAAT,-0.0145
17,CCTTGCCG,0.129
18,GACAGCGC,0.134
19,TTATCCAA,0.0824
20,GACGGAAC,0.475
21,AGCAGTGG,-0.0483
22,AGGTCTGA,-0.099
23,CTGCGACC,-0.0723
24,AACGCCGA,0.127
25,AGGAAATC,0.0849

row,Sequence,PBM E-score
1,ACGTTGCG,-0.0196
2,CCACAAAA,-0.0386
3,CCCAACAC,-0.135
4,ACTATAAT,0.0779
5,CACTATGA,-0.145
6,AGACTCTG,-0.206
7,AAAAATGT,0.0159
8,CCTGTAAC,-0.202
9,GCCATAGC,-0.0853
10,AAATCATC,-0.0344
11,ACCGTGCA,-0.103
12,CCAGAATA,-0.00355
13,AAAAACTC,-0.0574
14,AACATCTA,-0.116
15,CCAACTAA,-0.0457
16,CACGGTCC,0.00578
17,CCACTTCA,0.0476
18,ATTACTGC,0.0652
19,GTAGAGAA,-0.0493
20,AGCTCCCA,-0.172
21,GCGATCGA,0.104
22,ATCAAACG,0.125
23,ACTTCGGC,0.0951
24,ATTGAAAA,0.0454
25,ATCCCGAT,0.302

row,Sequence,PBM E-score
1,GCTAATTA,0.0889
2,CAGATTCA,-0.112
3,ACCCTTCC,0.203
4,GTGGTAAA,-0.16
5,GATTCTGC,0.0967
6,CGCGGCCC,0.278
7,GAGCTGAC,0.19
8,CTTTCATC,-0.158
9,TCATACGA,-0.0474
10,CGTTAGGA,-0.00197
11,CGGTTTAA,0.0891
12,CATCAGAC,-0.0231
13,CACTATTA,0.0367
14,ACGCCCAT,0.0937
15,ACCCATGG,0.0459
16,CGATATTA,0.231
17,CCATGAGG,-0.105
18,GCAGAAAA,0.0694
19,CGGAAGAC,0.393
